According to PMC5537608:
No constants are given. Whether binding was seen depends on the method and setting. In cells and extracts the contact can be indirect. Some results given as binding are weak or reduced against the parent protein; the word gives no strength.

Amino acid sequences for entries named in this document (tags omitted). A change or cut given only in a name is not applied to a line headed by its entry. Chains listed by the source or under a name are the forms on record and can include a tag or linker. Residues count along the entry.
UniProt P23771: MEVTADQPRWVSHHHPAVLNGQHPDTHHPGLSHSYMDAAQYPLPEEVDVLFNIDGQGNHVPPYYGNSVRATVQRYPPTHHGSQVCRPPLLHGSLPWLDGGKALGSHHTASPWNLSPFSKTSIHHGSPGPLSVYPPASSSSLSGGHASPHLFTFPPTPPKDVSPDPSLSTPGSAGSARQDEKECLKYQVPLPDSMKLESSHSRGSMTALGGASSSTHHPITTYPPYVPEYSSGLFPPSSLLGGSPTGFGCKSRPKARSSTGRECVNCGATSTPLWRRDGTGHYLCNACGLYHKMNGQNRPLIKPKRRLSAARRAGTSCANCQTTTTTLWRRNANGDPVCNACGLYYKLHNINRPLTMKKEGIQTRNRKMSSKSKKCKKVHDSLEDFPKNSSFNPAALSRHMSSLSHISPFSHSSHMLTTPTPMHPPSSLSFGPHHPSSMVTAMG
UniProt Q16665: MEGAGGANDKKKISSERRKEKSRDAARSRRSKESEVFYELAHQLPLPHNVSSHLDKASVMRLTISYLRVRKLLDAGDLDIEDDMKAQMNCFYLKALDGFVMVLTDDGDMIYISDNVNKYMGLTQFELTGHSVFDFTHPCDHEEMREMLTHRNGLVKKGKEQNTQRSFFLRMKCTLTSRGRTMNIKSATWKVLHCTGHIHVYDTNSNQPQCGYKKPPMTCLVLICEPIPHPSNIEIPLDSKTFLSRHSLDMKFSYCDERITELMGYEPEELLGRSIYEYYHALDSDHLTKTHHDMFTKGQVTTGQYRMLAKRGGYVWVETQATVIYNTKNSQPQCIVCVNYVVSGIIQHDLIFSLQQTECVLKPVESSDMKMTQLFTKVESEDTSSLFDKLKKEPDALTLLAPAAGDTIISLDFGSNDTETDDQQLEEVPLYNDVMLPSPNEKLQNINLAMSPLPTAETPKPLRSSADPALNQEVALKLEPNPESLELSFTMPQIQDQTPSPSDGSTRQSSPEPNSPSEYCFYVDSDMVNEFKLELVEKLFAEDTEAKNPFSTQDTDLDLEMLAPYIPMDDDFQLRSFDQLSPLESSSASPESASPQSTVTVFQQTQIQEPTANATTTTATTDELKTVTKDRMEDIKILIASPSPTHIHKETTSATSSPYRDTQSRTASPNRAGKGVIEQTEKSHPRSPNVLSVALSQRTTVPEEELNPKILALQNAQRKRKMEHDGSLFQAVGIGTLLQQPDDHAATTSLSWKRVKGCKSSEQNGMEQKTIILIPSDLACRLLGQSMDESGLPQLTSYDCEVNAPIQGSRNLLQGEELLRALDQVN
N-terminal part of HIF-1α (aa 1-401), Flag-tagged (N-HIF-1α/pCMV-Tag 4A): residues 1-401 of Q16665
C-terminal part of HIF-1α (aa 402-826), Flag-tagged (C-HIF-1α/pCMV-Tag 4A): residues 402-826 of Q16665

Key:
[1] = target: GST-GATA3 fusion protein (human) (UniProt P23771); experiment: pull-down; GST-GATA3 from E. coli lysate on Glutathione-Sepharose beads; lysates of 293FT cells expressing HIF-1α constructs (CoCl2 800 μM, 4 h) incubated at 4 °C for 18 h, five washes with lysis buffer, western blot; only the target purified
[2] = target: Hypoxia inducible factor-1 alpha (HIF-1α), endogenous (human (endogenous in OEC-M1 and A375)) (UniProt Q16665); experiment: co-IP; lysates in RIPA buffer (500 μg total protein) with 2 μg anti-HIF-1α or anti-GATA3 antibody (IgG control) 18 h at 4 °C, protein G agarose, five washes, immunoblot; cells incubated with MG132 (20 μM) and CoCl2 (800 μM) for 6 h; OEC-M1 with control or GATA3 siRNA, A375 with Mock or GATA3 …

In the case of “N-terminal part of HIF-1α (aa 1-401), Flag-tagged (N-HIF-1α/pCMV-Tag 4A) (from UniProt Q16665-1 1-401) (domain or fragment)”, the binding [1] is reported as “binds”.

With “Full-length HIF-1α, Flag-tagged (F-HIF-1α/pCMV-Tag 4A) (from UniProt Q16665-1 1-826)” the binding [1] was “binds”.

With “C-terminal part of HIF-1α (aa 402-826), Flag-tagged (C-HIF-1α/pCMV-Tag 4A) (from UniProt Q16665-1 402-826) (domain or fragment)” the binding [1] was “no binding”.

For “GATA3 expressed from GATA3/pcDNA3.1 in A375 cells (from UniProt P23771-1 1-443)”, the binding [2] was “binds”.

For “GATA binding protein 3 (GATA3), endogenous in OEC-M1 cells (from UniProt P23771 1-443)”, the binding [2] was “binds”.
